This note sets out measurements from patent publication US20260265394A1 (CARTESIAN THERAPEUTICS, published 2026).

This assay addresses T1, allophycocyanin (APC)-conjugated BCMA (Recombinant Human TNFRSF17 protein, Fc-tagged, APC labeled); Creative … (human, UniProt Q02223 1-54, allophycocyanin (APC) conjugated).
T1 construct: Bought reagent, used at 0.4 ug/mL to stain CAR T cells; also called BCMA-APC; recombinant BCMA-APC; not shown: Fc tag
T1 sequence (looked up): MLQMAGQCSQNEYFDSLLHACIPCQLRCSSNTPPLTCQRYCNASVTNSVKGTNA
The assay can be described thus: flow cytometry, CAR T cells stained with BCMA-APC. As for the experimental part:
CAR T cells obtained from the above-described process were tested for viability, CAR protein expression, BCMA binding, cytotoxicity, i.e., the ability to kill BCMA+ myeloma (tumor) cells, and cytokine production. Resistance of the CAR protein to downregulation was tested by incubation of CAR T cells with, or without, BCMA+ myeloma cells, followed by analysis of CAR expression. Viability, CAR expression, and BCMA binding were determined by flow cytometry on a Guava® EasyCyte® 12HT Flow cytometer (Luminex). To test viability, a sample of the CAR T cells was mixed with propidium iodide and acridine orange and analyzed by fluorescence microscopy using a Nexcelom Auto 2000 cytometer. To test CAR protein expression and BCMA binding, a sample of the CAR T cells was incubated with 0.4 μg/mL of allophycocyanin (APC)-conjugated BCMA (Recombinant Human TNFRSF17 protein, Fc-tagged, APC labeled; Creative Biomart, Shirley, NY). CAR expression was assessed on the flow cytometer with electronic gating on fluorescence in the red channel to detect presence or absence of emission from BCMA-APC on CAR-positive and CAR-negative cells. BCMA binding was determined by measuring the intensity of fluorescence in the red channel to determine the relative quantity of BCMA-APC bound to labelled CAR-positive cells. […]
On the technique in general: A flow cytometer gives signals particle by particle.

B1: Anti-BCMA CAR containing WT CD3z only (SEQ ID NO: 1) (receptor)
chain: DIVLTQSPASLAVSPGQRATITCRASESVTILGSHLIHWYQQKPGQPPKLLINLASNVNTGVPARFSGSGSGTDFTLTISSVEPEDTANYYCLQSRTLPRTFGQGTKVEIKGSTSGSGKPGSGEGSTKGQIQLVQSGPELKKPGGSVKISCKASGYTFTDYSINWVRQAPGKGLEWVGWINTETREPAYAYDFRGRFTFSADTSKSMAYLQINSLRAEDTAVYYCALDYTYGMDYWGQGTLVTVSSFVPVFLPAKPTTTPAPRPPTPAPTIASQPLSLRPEACRPAAGGAVHTRGLDFACDIYIWAPLAGTCGVLLLSLVITLYCNHRN[about 120 residues skipped]
notes: Chimeric antigen receptor (signal peptide-scFv-CD8-CD3-zeta) expressed on human CD8+ T cells after electroporation of IVT mRNA; The entry includes the signal peptide; also called wild-type CAR
Regarding B1, the binding result is “binds”.
